From the supplement of paper PMC7826260 come the findings set out here.

The list shows a part of the results. One pool of 16,384 single-stranded DNAs met each Rep nickase domain in vitro for 1 h at 37 °C with 3 µM enzyme; only the middle of the 90-letter strands is printed. A value is the log2 ratio of uncut reads to the pool without enzyme; uncut sequences lie near 0, cut ones below; no hit call is given. Shares of all reads are compared; values above 0 arise when much of the pool is cut.

Holding throughout (assay): uncleaved DNA left, log2 of reads against the no-enzyme library (log2 ratio); higher = less cleavage (more negative = more Rep cleavage of the k-mer); sequences stand for … in CTCGTCCG…ACCGGAGA
Assay [1] has as its system T1, Rep nickase domain of Muscovy duck circovirus.
T1 sequence (protein, residues 1-111, tag omitted): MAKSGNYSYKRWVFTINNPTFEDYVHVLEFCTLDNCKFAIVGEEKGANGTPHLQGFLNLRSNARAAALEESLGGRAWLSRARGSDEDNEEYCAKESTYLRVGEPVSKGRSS
On the procedure:
(§1)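 A pool of 90-nt single-stranded DNAs with seven random bases just before the constant AC of the nick site (name = the seven bases) was cut by 3 µM recombinant His6-SUMO-tagged Rep nickase domain (300 nM DNA, 50 mM HEPES pH 8.0, 50 mM NaCl, 1 mM MnCl2, 1 h, 37 °C, three replicates). Uncut DNA was amplified and sequenced.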

For assay [2], the system named is T2, Rep nickase domain of banana bunchy top virus.
T2 sequence (protein, residues 1-94, tag omitted): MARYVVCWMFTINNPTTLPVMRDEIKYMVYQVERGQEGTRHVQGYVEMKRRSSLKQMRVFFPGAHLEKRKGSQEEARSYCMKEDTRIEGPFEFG
On the procedure: as §1
Assay [3] has as its system T3, Rep nickase domain of cabbage leaf curl virus.
T3 sequence (protein, residues 1-116, tag omitted): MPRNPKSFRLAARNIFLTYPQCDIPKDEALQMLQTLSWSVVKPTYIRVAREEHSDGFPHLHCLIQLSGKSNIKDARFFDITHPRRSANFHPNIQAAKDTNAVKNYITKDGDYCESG
On the procedure:
as §1

The test system of assay [4] is T4, Rep nickase domain of chickpea chlorotic dwarf virus.
T4 sequence (protein, residues 1-124, tag omitted): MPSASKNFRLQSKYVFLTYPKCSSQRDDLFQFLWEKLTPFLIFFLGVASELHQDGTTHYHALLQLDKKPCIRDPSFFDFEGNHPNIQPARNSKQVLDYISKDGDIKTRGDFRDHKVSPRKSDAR
On the procedure: as §1
Assay [5] concerns T5, Rep nickase domain of faba bean necrotic yellows virus.
T5 sequence (protein, residues 1-98, tag omitted): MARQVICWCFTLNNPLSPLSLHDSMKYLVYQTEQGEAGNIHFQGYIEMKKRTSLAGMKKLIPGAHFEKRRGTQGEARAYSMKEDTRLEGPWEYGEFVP
As to the method:
as §1

Assay [6] concerns T6, Rep nickase domain of maize striate mosaic virus.
T6 sequence (protein, residues 1-117, tag omitted): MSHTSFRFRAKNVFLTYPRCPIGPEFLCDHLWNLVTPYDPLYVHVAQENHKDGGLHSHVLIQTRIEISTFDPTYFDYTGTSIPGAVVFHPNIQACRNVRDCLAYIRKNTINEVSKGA
On the procedure:
as §1

The test system of assay [7] is T7, Rep nickase domain of porcine circovirus 2.
T7 sequence (protein, residues 2-116, tag omitted): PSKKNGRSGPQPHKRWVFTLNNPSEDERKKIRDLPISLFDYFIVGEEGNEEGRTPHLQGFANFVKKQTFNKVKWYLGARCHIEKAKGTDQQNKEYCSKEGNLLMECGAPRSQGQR
As to the method:
as §1

For assay [8], the system named is T8, Rep nickase domain of tomato golden mosaic virus.
T8 sequence (protein, residues 1-124, tag omitted): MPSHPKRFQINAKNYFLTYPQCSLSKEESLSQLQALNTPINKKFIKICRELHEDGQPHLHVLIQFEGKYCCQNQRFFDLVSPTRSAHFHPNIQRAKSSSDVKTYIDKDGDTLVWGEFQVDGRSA
As to the method:
as §1

For assay [9], the system named is T9, Rep nickase domain of tomato yellow leaf curl virus.
T9 sequence (protein, residues 1-136, tag omitted): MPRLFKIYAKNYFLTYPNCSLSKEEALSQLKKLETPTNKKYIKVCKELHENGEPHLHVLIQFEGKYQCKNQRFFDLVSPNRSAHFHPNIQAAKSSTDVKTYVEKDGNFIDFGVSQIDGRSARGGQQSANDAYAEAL
On the procedure:
as §1

The subject of assay [10] is T10, Rep nickase domain of wheat dwarf virus.
T10 sequence (protein, residues 1-137, tag omitted): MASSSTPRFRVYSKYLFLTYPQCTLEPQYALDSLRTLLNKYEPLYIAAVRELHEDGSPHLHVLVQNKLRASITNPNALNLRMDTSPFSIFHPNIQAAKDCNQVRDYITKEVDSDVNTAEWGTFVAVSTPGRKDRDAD
On the procedure: as §1

On to CGGGACC, for which the “uncleaved DNA left (log2)” value in assay [1] came to 0.0321; in [2], 0.0705; in [3], 0.783; in assay [4] it was 1.91; in assay [5], 0.0219; in assay [6], 2.22. Besides, the “uncleaved DNA left (log2)” value in assay [7] stood at 0.243; in assay [8] it was 0.101; in assay [9], 0.0435; in [10], 0.144.

With CGGCGAT, the “uncleaved DNA left (log2)” value in assay [1] is 0.0456; in assay [2], 0.0535; in assay [3], -0.00137; in assay [4], 0.664; in [5], -0.169; in [6], 0.528. Further, the “uncleaved DNA left (log2)” value in assay [7] is 0.107; in assay [8], 0.136; in assay [9], -0.0436; in assay [10] it was 0.0455.

For GGAGAGT, the “uncleaved DNA left (log2)” value in assay [1] amounted to 0.184; in [2] it was 0.191; in assay [3], 0.928; in assay [4], 1.81; in [5], 0.0822; in assay [6] it was 2.13. The “uncleaved DNA left (log2)” value in assay [7] was 0.286; in assay [8] it was 0.085; in assay [9], 0.214; in assay [10], 0.218.

Regarding CTTGCGG, the “uncleaved DNA left (log2)” value in [1] was -0.00558; in assay [2], -0.0019; in assay [3], 0.354; in [4], 1.34; in assay [5], -0.0782; in assay [6], 1.48. Besides, the “uncleaved DNA left (log2)” value was 0.117 in assay [7], 0.127 in assay [8], -0.137 in assay [9] and 0.0377 in [10].

Take ATCTAAT: the “uncleaved DNA left (log2)” value in [1] is -1.94; in [2] it was -0.819; in assay [3] it was -0.282; in assay [4], -0.968; in [5], -0.182; in [6], -0.561. For the same sequence, the “uncleaved DNA left (log2)” value in assay [7] is -3.34; in [8] it was 0.0453; in [9] it was -0.0942; in assay [10], -0.0793.

With ATATCAT, the “uncleaved DNA left (log2)” value in assay [1] was -0.164; in assay [2] it was 0.11; in assay [3], 0.173; in assay [4], -0.501; in assay [5] it was -0.0151; in [6], -0.249. Moreover, the “uncleaved DNA left (log2)” value was -0.467 in assay [7], 0.117 in [8], 0.066 in assay [9] and 0.0999 in assay [10].

As to CTGCAAT, the “uncleaved DNA left (log2)” value was 0.0173 in assay [1]; 0.0913 in assay [2]; -0.156 in assay [3]; -0.446 in assay [4]; 0.134 in assay [5]; -0.738 in [6]. In addition, the “uncleaved DNA left (log2)” value in [7] was 0.042; in [8], 0.065; in assay [9], -0.0439; in assay [10] it was 0.131.

As for AACCTAT, the “uncleaved DNA left (log2)” value in [1] was -0.115; in assay [2], -0.0309; in [3], -0.164; in [4], -1.95; in [5], -0.0437; in assay [6], -0.6. Further, the “uncleaved DNA left (log2)” value in assay [7] is -1.2; in [8] it was 0.0264; in assay [9], -0.018; in assay [10], -0.04.

Consider CCCAGGG, for which the “uncleaved DNA left (log2)” value is 0.105 in [1]; -0.0291 in assay [2]; -0.0988 in assay [3]; 0.172 in assay [4]; 0.0931 in [5]; -0.566 in [6]. The “uncleaved DNA left (log2)” value in assay [7] worked out at 0.104; in [8], 0.129; in [9], 0.0618; in assay [10], 0.0459.

As to GGTTCCA, the “uncleaved DNA left (log2)” value in assay [1] was 0.0801; in [2], 0.169; in assay [3] it was 0.376; in assay [4], 0.965; in assay [5], -0.0517; in assay [6], 1.78. Also, the “uncleaved DNA left (log2)” value in assay [7] turned out to be 0.16; in assay [8], 0.115; in assay [9], 0.173; in [10], 0.18.

Take ACTACGG: the “uncleaved DNA left (log2)” value in [1] was 0.00715; in assay [2], 0.033; in assay [3], -0.231; in assay [4], -0.0563; in assay [5], 0.0285; in [6], -0.538. The “uncleaved DNA left (log2)” value in [7] is 0.00312; in assay [8] it was 0.087; in assay [9] it was -0.0158; in [10], -0.0525.

For TCCAAGT, the “uncleaved DNA left (log2)” value in assay [1] is 0.127; in assay [2] it was 0.00401; in [3], 0.311; in assay [4] it was -0.194; in assay [5], 0.0489; in [6], -0.338. The “uncleaved DNA left (log2)” value in assay [7] is -0.0618; in [8] it was 0.0663; in assay [9], 0.0415; in [10], 0.075.

Take TCACCCG: the “uncleaved DNA left (log2)” value is -0.0198 in [1]; 0.00485 in assay [2]; -0.871 in assay [3]; -0.644 in assay [4]; -0.00662 in assay [5]; -1.17 in [6]. Moreover, the “uncleaved DNA left (log2)” value in assay [7] is -0.302; in [8] it was -0.0409; in assay [9], -0.0645; in assay [10], -0.06.

As for GGATAAA, the “uncleaved DNA left (log2)” value in assay [1] was 0.0237; in assay [2] it was 0.0571; in assay [3], 0.623; in assay [4], 1.48; in [5], 0.0499; in [6] it was 1.93. The “uncleaved DNA left (log2)” value in [7] was 0.251; in assay [8], 0.121; in assay [9] it was 0.0417; in assay [10], 0.159.

On to AGCCGTC, for which the “uncleaved DNA left (log2)” value came to 0.0856 in assay [1]; 0.0218 in [2]; 0.179 in [3]; 0.354 in [4]; 0.0423 in assay [5]; 0.0662 in [6]. In addition, the “uncleaved DNA left (log2)” value in [7] came to 0.0948; in assay [8], 0.0292; in assay [9] it was 0.0372; in assay [10], 0.0162.
